# Source: the supplement of paper PMC8728848
# This is one part of the list.
# B1: LecB PA14 (Pseudomonas aeruginosa) (protein)
# chain: MATQGVFTLPANTQFGVTAFANSAGTQTVNVQVNNETVATFTGQSTNNAIIGSKVLNSGGGGKVQILVSVNGRSSDLVSAQVILANELNFALVGSEDSTDNDYNDAVVVINWPLG
# What was measured:
# Test in all cases: glycan array binding signal (z-score within array); higher = stronger binding
# Conditions in all cases: glycan notation: IUPAC condensed, linker removed
# [1] = molecular target: Gal(a1-3)Gal(b1-4)GlcNAc(b1-2)Man
# Method in brief: (§1)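 From the Consortium for Functional Glycomics database, 3228 arrays were curated, keeping only those whose protein sequence was available. Binding is given as a within-array Z-score averaged across arrays sharing a protein sequence and across linkers. Negative Z-scores can be read as non-binding.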
# [2] = molecular target: Gal(a1-3)Gal(b1-4)GlcNAc(b1-2)Man(a1-3)[Gal(a1-3)Gal(b1-4)GlcNAc(b1-2)Man(a1-6)]Man(b1-4)GlcNAc(b1-4)GlcNAc
# Method in brief: as §1
# [3] = molecular target: Gal(a1-3)Gal(b1-4)GlcNAc(b1-3)GalNAc
# Method in brief: as §1
# [4] = molecular target: Gal(a1-3)Gal(b1-4)GlcNAc(b1-6)GalNAc
# Method in brief: as §1
# [5] = molecular target: Gal(a1-3)Gal(b1-4)[Fuc(a1-3)]GlcNAc
# Method in brief: as §1
# [6] = molecular target: Gal(a1-3)Gal(b1-4)[Fuc(a1-3)]GlcNAc(b1-2)Man(a1-3)[Gal(a1-3)Gal(b1-4)[Fuc(a1-3)]GlcNAc(b1-2)Man(a1-6)]Man(b1-4)GlcNAc(b1-4)GlcNAc
# Method in brief: as §1
# Gal(a1-3)GalNAc = molecular target: Gal(a1-3)GalNAc
# Method in brief: as §1
# [7] = molecular target: Gal(a1-3)[Gal(a1-4)]Gal(b1-4)GlcNAc
# Method in brief: as §1
# [8] = molecular target: Gal(a1-4)Gal(b1-3)GlcNAc(b1-2)Man(a1-3)[Gal(a1-4)Gal(b1-3)GlcNAc(b1-2)Man(a1-6)]Man(b1-4)GlcNAc(b1-4)GlcNAc
# Method in brief: as §1
# Gal(a1-4)Gal(b1-4)Glc = molecular target: Gal(a1-4)Gal(b1-4)Glc
# Method in brief: as §1
# Gal(a1-4)Gal(b1-4)GlcNAc = molecular target: Gal(a1-4)Gal(b1-4)GlcNAc
# Method in brief: as §1
# [9] = molecular target: Gal(a1-4)Gal(b1-4)GlcNAc(b1-2)Man(a1-3)[Gal(a1-4)Gal(b1-4)GlcNAc(b1-2)Man(a1-6)]Man(b1-4)GlcNAc(b1-4)GlcNAc
# Method in brief: as §1
# [10] = molecular target: Gal(a1-4)Gal(b1-4)GlcNAc(b1-3)Gal(b1-4)Glc
# Method in brief: as §1
# Gal(a1-4)GlcNAc = molecular target: Gal(a1-4)GlcNAc
# Method in brief: as §1
# Gal(a1-6)Glc = molecular target: Gal(a1-6)Glc
# Method in brief: as §1
# Gal(b1-2)Gal = molecular target: Gal(b1-2)Gal
# Method in brief: as §1
# Gal(b1-3)Gal = molecular target: Gal(b1-3)Gal
# Method in brief: as §1
# Gal(b1-3)Gal(b1-4)GlcNAc = molecular target: Gal(b1-3)Gal(b1-4)GlcNAc
# Method in brief: as §1
# Gal(b1-3)GalNAc = molecular target: Gal(b1-3)GalNAc
# Method in brief: as §1
# [11] = molecular target: Gal(b1-3)GalNAc(a1-3)[Fuc(a1-2)]Gal(b1-4)Glc
# Method in brief: as §1
# [12] = molecular target: Gal(b1-3)GalNAc(a1-3)[Fuc(a1-2)]Gal(b1-4)GlcNAc
# Method in brief: as §1
# Gal(b1-3)GalNAc(b1-3)Gal = molecular target: Gal(b1-3)GalNAc(b1-3)Gal
# Method in brief: as §1
# [13] = molecular target: Gal(b1-3)GalNAc(b1-3)Gal(a1-4)Gal(b1-4)Glc
# Method in brief: as §1
# [14] = molecular target: Gal(b1-3)GalNAc(b1-4)Gal(b1-4)Glc
# Method in brief: as §1
# [15] = molecular target: Gal(b1-3)GalNAc(b1-4)[Neu5Ac(a2-3)]Gal(b1-4)Glc
# Method in brief: as §1
# Gal(b1-3)GlcNAc = molecular target: Gal(b1-3)GlcNAc
# Method in brief: as §1
# [16] = molecular target: Gal(b1-3)GlcNAc(a1-3)Gal(b1-4)GlcNAc
# Method in brief: as §1
# [17] = molecular target: Gal(b1-3)GlcNAc(a1-6)Gal(b1-4)GlcNAc
# Method in brief: as §1
# Gal(b1-3)GlcNAc(b1-2)Man = molecular target: Gal(b1-3)GlcNAc(b1-2)Man
# Method in brief: as §1
# [18] = molecular target: Gal(b1-3)GlcNAc(b1-2)Man(a1-3)[Gal(b1-3)GlcNAc(b1-2)Man(a1-6)]Man(b1-4)GlcNAc(b1-4)GlcNAc
# Method in brief: as §1
# [19] = molecular target: Gal(b1-3)GlcNAc(b1-2)Man(a1-3)[Gal(b1-3)GlcNAc(b1-2)Man(a1-6)]Man(b1-4)GlcNAc(b1-4)[Fuc(a1-6)]GlcNAc
# Method in brief: as §1
# [20] = molecular target: Gal(b1-3)GlcNAc(b1-2)Man(a1-3)[GlcNAc(b1-4)][Gal(b1-3)GlcNAc(b1-2)Man(a1-6)]Man(b1-4)GlcNAc(b1-4)GlcNAc
# Method in brief: as §1
# [21] = molecular target: Gal(b1-3)GlcNAc(b1-2)[Gal(b1-3)GlcNAc(b1-6)]Man(a1-6)[Gal(b1-3)GlcNAc(b1-2)Man(a1-3)]Man(b1-4)GlcNAc(b1-4)GlcNAc
# Method in brief: as §1
# [22] = molecular target: Gal(b1-3)GlcNAc(b1-3)Gal(b1-3)GlcNAc
# Method in brief: as §1
# [23] = molecular target: Gal(b1-3)GlcNAc(b1-3)Gal(b1-4)Glc
# Method in brief: as §1
# [24] = molecular target: Gal(b1-3)GlcNAc(b1-3)Gal(b1-4)GlcNAc
# Method in brief: as §1
# [25] = molecular target: Gal(b1-3)GlcNAc(b1-3)Gal(b1-4)GlcNAc(b1-2)Man(a1-3)[Gal(b1-3)GlcNAc(b1-3)Gal(b1-4)GlcNAc(b1-2)Man(a1-6)]Man(b1-4)GlcNAc(b1-4)GlcNAc
# Method in brief: as §1
# [26] = molecular target: Gal(b1-3)GlcNAc(b1-3)Gal(b1-4)GlcNAc(b1-2)[Gal(b1-3)GlcNAc(b1-3)Gal(b1-4)GlcNAc(b1-6)]Man(a1-6)[Gal(b1-3)GlcNAc(b1-3)Gal(b1-4)GlcNAc(b1-2)Man(a1-3)]Man(b1-4)GlcNAc(b1-4)[Fuc(a1-6)]GlcNAc
# Method in brief: as §1
# [27] = molecular target: Gal(b1-3)GlcNAc(b1-3)Gal(b1-4)GlcNAc(b1-3)Gal(b1-4)GlcNAc(b1-2)[Gal(b1-3)GlcNAc(b1-3)Gal(b1-4)GlcNAc(b1-3)Gal(b1-4)GlcNAc(b1-6)]Man(a1-6)[Gal(b1-3)GlcNAc(b1-3)Gal(b1-4)GlcNAc(b1-3)Gal(b1-4)GlcNAc(b1-2)Man(a1-3)]Man(b1-4)GlcNAc(b1-4)[Fuc(a1-6)]GlcNAc
# Method in brief: as §1
# [28] = molecular target: Gal(b1-3)GlcNAc(b1-3)Gal(b1-4)GlcNAc(b1-6)[Gal(b1-3)GlcNAc(b1-3)]Gal(b1-4)Glc
# Method in brief: as §1
# [29] = molecular target: Gal(b1-3)GlcNAc(b1-3)Gal(b1-4)[Fuc(a1-3)]GlcNAc
# Method in brief: as §1
# [30] = molecular target: Gal(b1-3)GlcNAc(b1-3)Gal(b1-4)[Fuc(a1-3)]GlcNAc(b1-6)[Gal(b1-3)GlcNAc(b1-3)]Gal(b1-4)Glc
# Method in brief: as §1
# [31] = molecular target: Gal(b1-3)GlcNAc(b1-3)GalNAc
# Method in brief: as §1
# [32] = molecular target: Gal(b1-3)GlcNAc(b1-6)Gal(b1-4)GlcNAc
# Method in brief: as §1
# [33] = molecular target: Gal(b1-3)GlcNAc(b1-6)GalNAc
# Method in brief: as §1
binder,measurement,setting,value
B1,glycan array binding signal (z-score),[1],-0.746
same,glycan array binding signal (z-score),[2],-0.446
same,glycan array binding signal (z-score),[3],-0.61
same,glycan array binding signal (z-score),[4],-0.532
same,glycan array binding signal (z-score),[5],0.859
same,glycan array binding signal (z-score),[6],0.183
same,glycan array binding signal (z-score),Gal(a1-3)GalNAc,-0.581
same,glycan array binding signal (z-score),[7],0.434
same,glycan array binding signal (z-score),[8],-0.397
same,glycan array binding signal (z-score),Gal(a1-4)Gal(b1-4)Glc,-0.633
same,glycan array binding signal (z-score),Gal(a1-4)Gal(b1-4)GlcNAc,-0.113
same,glycan array binding signal (z-score),[9],-0.292
same,glycan array binding signal (z-score),[10],0.061
same,glycan array binding signal (z-score),Gal(a1-4)GlcNAc,-0.949
same,glycan array binding signal (z-score),Gal(a1-6)Glc,-0.62
same,glycan array binding signal (z-score),Gal(b1-2)Gal,-0.748
same,glycan array binding signal (z-score),Gal(b1-3)Gal,-0.06
same,glycan array binding signal (z-score),Gal(b1-3)Gal(b1-4)GlcNAc,-0.517
same,glycan array binding signal (z-score),Gal(b1-3)GalNAc,-0.109
same,glycan array binding signal (z-score),[11],-0.227
same,glycan array binding signal (z-score),[12],-0.64
same,glycan array binding signal (z-score),Gal(b1-3)GalNAc(b1-3)Gal,-0.007
same,glycan array binding signal (z-score),[13],-0.411
same,glycan array binding signal (z-score),[14],-0.558
same,glycan array binding signal (z-score),[15],-0.21
same,glycan array binding signal (z-score),Gal(b1-3)GlcNAc,-0.781
same,glycan array binding signal (z-score),[16],0.132
same,glycan array binding signal (z-score),[17],-0.617
same,glycan array binding signal (z-score),Gal(b1-3)GlcNAc(b1-2)Man,0.53
same,glycan array binding signal (z-score),[18],-0.37
same,glycan array binding signal (z-score),[19],0.647
same,glycan array binding signal (z-score),[20],0.447
same,glycan array binding signal (z-score),[21],0.307
same,glycan array binding signal (z-score),[22],0.494
same,glycan array binding signal (z-score),[23],-0.401
same,glycan array binding signal (z-score),[24],-0.628
same,glycan array binding signal (z-score),[25],0.146
same,glycan array binding signal (z-score),[26],0.648
same,glycan array binding signal (z-score),[27],1.51
same,glycan array binding signal (z-score),[28],-0.714
same,glycan array binding signal (z-score),[29],0.06
same,glycan array binding signal (z-score),[30],-0.406
same,glycan array binding signal (z-score),[31],-0.818
same,glycan array binding signal (z-score),[32],-0.708
same,glycan array binding signal (z-score),[33],-0.107
